These are yes or no findings as the source states them, for the method shown. In cells and extracts the contact can be indirect. Some results given as binding are weak or reduced against the parent protein; the word gives no strength.

By UniProt entry, the sequences of proteins in these tests, tags left out. Where a name states a change or a piece, a line headed by the entry shows the natural chain unless it says otherwise.
UniProt Q9UKV8: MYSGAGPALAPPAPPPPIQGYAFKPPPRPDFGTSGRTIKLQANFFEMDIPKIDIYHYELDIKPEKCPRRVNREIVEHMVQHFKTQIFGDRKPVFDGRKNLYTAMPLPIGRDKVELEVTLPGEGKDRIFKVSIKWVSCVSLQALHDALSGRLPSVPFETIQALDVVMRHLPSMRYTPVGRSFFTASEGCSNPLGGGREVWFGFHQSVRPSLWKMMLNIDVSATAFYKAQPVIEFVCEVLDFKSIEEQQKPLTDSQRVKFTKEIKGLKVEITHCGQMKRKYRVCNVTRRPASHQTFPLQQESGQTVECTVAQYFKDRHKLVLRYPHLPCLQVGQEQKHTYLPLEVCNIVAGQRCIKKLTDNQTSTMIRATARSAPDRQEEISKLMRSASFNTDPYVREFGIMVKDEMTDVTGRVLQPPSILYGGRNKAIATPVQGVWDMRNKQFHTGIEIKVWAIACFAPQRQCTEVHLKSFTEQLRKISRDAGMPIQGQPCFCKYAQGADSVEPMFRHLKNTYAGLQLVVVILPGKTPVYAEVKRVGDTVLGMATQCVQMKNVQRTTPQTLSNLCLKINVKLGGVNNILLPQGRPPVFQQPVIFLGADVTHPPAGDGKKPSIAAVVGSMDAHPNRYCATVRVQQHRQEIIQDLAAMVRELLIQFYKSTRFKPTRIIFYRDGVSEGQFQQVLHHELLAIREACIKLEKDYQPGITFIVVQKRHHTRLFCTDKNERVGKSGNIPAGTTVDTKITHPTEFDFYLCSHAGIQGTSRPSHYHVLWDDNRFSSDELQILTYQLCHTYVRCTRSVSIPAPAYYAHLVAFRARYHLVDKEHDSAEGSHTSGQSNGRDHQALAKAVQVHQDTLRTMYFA

For experiment [1], the target named is endogenous Argonaute 2 (AGO2) (human (endogenous in T47D)) (UniProt Q9UKV8). Nature of the experiment: co-IP; anti-AGO2 antibody IP from T47D nuclear extract versus IgG control, Western blot of partners; 300 µg protein, 4°C, 6 washes in IP300 buffer (300 mM NaCl, 0.05% NP-40). (In general: Immunoblotting shows a protein as a band on a membrane.)
In experiment [2] the target is endogenous Argonaute 2 (AGO2) (human (endogenous in T47D)), Q9UKV8. Nature of the experiment: co-IP; anti-AGO2 antibody IP from a cytoplasmic sample, Western blot with anti-TRBP antibody (Supplemental Fig. S5). The conditions noted are these: remark: other sources report otherwise.

B1: PSPC1 (protein, UniProt Q8WXF1 1-523)
chain: MMLRGNLKQVRIEKNPARLRALESAVGESEPAAAAAMALALAGEPAPPAPAPPEDHPDEEMGFTIDIKSFLKPGEKTYTQRCRLFVGNLPTDITEEDFKRLFERYGEPSEVFINRDRGFGFIRLESRTLAEIAKAELDGTILKSRPLRIRFATHGAALTVKNLSPVVSNELLEQAFSQFGPVEKAVVVVDDRGRATGKGFVEFAAKPPARKALERCGDGAFLLTTTPRPVIVEPMEQFDDEDGLPEKLMQKTQQYHKEREQPPRFAQPGTFEFEYASRWKALDEMEKQQREQVDRNIREAKEKLEAEMEAARHEHQLMLMRQDLMRRQEELRRLEELRNQELQKRKQIQLRHEEEHRRREEEMIRHREQEELRRQQEGFKPNYMENREQEMRMGDMGPRGAINMGDAFSPAPAGNQGPPPMMGMNMNNRATIPGPPMGPGPAMGPEGAANMGTPMMPDNGAVHNDRFPQGPPSQMGSPMGSRTGSETPQAPMSGVGPVSGGPGGFGRGSQGGNFEGPNKRRRY
As to B1, the binding entry in experiment [1] is “no binding”.

B2: TAR RNA binding protein (TRBP), Q15633-1 1-366 (protein)
chain: MSEEEQGSGTTTGCGLPSIEQMLAANPGKTPISLLQEYGTRIGKTPVYDLLKAEGQAHQPNFTFRVTVGDTSCTGQGPSKKAAKHKAAEVALKHLKGGSMLEPALEDSSSFSPLDSSLPEDIPVFTAAAAATPVPSVVLTRSPPMELQPPVSPQQSECNPVGALQELVVQKGWRLPEYTVTQESGPAHRKEFTMTCRVERFIEIGSGTSKKLAKRNAAAKMLLRVHTVPLDARDGNEVEPDDDHFSIGVGSRLDGLRNRGPGCTWDSLRNSVGEKILSLRSCSLGSLGALGPACCRVLSELSEEQAFHVSYLDIEELSLSGLCQCLVELSTQPATVCHGSATTREAARGEAARRALQYLKIMAGSK
Consider B2, for which the binding entry in experiment [2] is reported as “binds”.

B3: TAR RNA binding protein (TRBP) (protein, UniProt Q15633-1 1-366)
chain: MSEEEQGSGTTTGCGLPSIEQMLAANPGKTPISLLQEYGTRIGKTPVYDLLKAEGQAHQPNFTFRVTVGDTSCTGQGPSKKAAKHKAAEVALKHLKGGSMLEPALEDSSSFSPLDSSLPEDIPVFTAAAAATPVPSVVLTRSPPMELQPPVSPQQSECNPVGALQELVVQKGWRLPEYTVTQESGPAHRKEFTMTCRVERFIEIGSGTSKKLAKRNAAAKMLLRVHTVPLDARDGNEVEPDDDHFSIGVGSRLDGLRNRGPGCTWDSLRNSVGEKILSLRSCSLGSLGALGPACCRVLSELSEEQAFHVSYLDIEELSLSGLCQCLVELSTQPATVCHGSATTREAARGEAARRALQYLKIMAGSK
On to B3, for which the binding result in experiment [1] is given as “no binding (condition: in nuclear extract)”.

The record behind these values is paper PMC4911916.
